The values that follow come from publication PMC6919601, “Identification of Plasmodium dipeptidyl aminopeptidase allosteric inhibitors by high throughput screening” (PLoS ONE, 2019).

Screen size: about 110,000 compounds; about 230 (0.21%) showed an effect of 50% or more. The list shows a part of the results.
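Also: 30 min substrate incubation versus DMSO and 10 µM JCP410 controls.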

DPAP1, sequence (Q8IIJ9 whole entry, looked up): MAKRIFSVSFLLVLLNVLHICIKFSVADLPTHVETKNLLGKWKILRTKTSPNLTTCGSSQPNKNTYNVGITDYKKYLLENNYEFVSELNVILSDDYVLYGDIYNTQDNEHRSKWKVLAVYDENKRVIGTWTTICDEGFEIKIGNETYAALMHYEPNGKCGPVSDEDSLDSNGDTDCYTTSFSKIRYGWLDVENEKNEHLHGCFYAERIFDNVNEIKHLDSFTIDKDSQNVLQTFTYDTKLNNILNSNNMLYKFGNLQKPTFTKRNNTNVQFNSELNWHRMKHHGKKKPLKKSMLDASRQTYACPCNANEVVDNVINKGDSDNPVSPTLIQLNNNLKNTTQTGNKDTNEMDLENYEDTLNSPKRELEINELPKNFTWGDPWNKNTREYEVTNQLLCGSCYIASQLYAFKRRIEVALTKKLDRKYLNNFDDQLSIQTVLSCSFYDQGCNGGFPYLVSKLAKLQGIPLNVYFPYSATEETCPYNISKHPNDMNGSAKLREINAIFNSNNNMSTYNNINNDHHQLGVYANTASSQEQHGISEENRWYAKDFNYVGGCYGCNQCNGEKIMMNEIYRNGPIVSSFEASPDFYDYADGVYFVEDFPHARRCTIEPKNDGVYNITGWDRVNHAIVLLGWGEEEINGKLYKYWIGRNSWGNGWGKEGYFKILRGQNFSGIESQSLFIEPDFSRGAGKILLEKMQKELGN

The experiment has as its target DPAP1 (Plasmodium falciparum, UniProt Q8IIJ9). In words: primary screen, percent inhibition; read by cleavage of a fluorogenic dipeptide substrate; higher = more effect of the substance. Also noted: species or system P. falciparum D10 trophozoite lysates; single well.
On to `CCCCN(C)c1ncnc2scc(-c3ccccc3)c12`, for which the “% Inhibition @ 10 uM” value is -1.48%.
To `CC1CCN(CC(O)COc2ccc(C(C)C)cc2)CC1` (stereo not drawn) belongs -9.51%; to `O=C(O)c1ccccc1C(=O)Nc1ccccc1NC(=O)c1ccccc1C(=O)O`, 0.0974%.
For `COc1cc(C)c(CN2CCC(N3CCCCC3)CC2)cc1C`, the “% Inhibition @ 10 uM” value is -0.0494%.
`CCN1CCN(Cc2ccc3c(c2)OCO3)CC1`: the “% Inhibition @ 10 uM” value is 3.16%.
As for `C=CCOc1c(Br)cc(CNc2nccs2)cc1OCC`, the figure is -7.28%.
Turning to `CCC(C(=O)Nc1ccc(Cl)cc1)c1ccccc1` (stereo not drawn), the “% Inhibition @ 10 uM” value was -7.11%.
To `CC(NC(=O)c1nnc(Cc2ccc(Cl)cc2)o1)c1ccccc1` (stereo not drawn) belongs -0.414%; to `Cc1ccc(-c2ccccc2)n1-c1cccnc1`, 3.65%; to `O=C(O)C1CCCCC1C(=O)NCCc1ccncc1` (stereo not drawn), 0.64%.
To `Cc1nn(CC(=O)NC(C)C23CC4CC(CC(C4)C2)C3)c(=O)c2c1sc1ccccc12` (stereo not drawn) belongs -0.856%.
On to `CN(C)c1ccc(/C=C/c2nc(=O)c3ccccc3o2)cc1`, for which the “% Inhibition @ 10 uM” value amounted to 26.3%.
As for `CCc1ccc(S(=O)(=O)Nc2cccc(-c3cn4ccsc4n3)c2)cc1`, the “% Inhibition @ 10 uM” value turned out to be 1.37%.
For the compound `CCN(CC)Cc1nc(O)c2c(n1)-c1ccccc1CC21CCCC1`, the “% Inhibition @ 10 uM” value is on record as -3.44%.
For `O=C(CCC1CCCCC1)N1CCN(C(=O)CCC2CCCCC2)CC1`, the “% Inhibition @ 10 uM” value worked out at 2.03%.
To `CN1C(=O)N(C)C(=O)C(Cc2ccccc2)(Cc2ccccc2)C1=O` belongs 2.58%.
`CC(C)c1c(O)n2nc(-c3ccccc3)ccc2[n+](-c2ccc(F)cc2)c1=O`: the “% Inhibition @ 10 uM” value worked out at 1.58%.
`CCc1cccc(-n2nnc(-c3nsc(NC(=O)c4ccccc4)n3)c2C)c1`: the “% Inhibition @ 10 uM” value was -5.47%.
For the compound `COC(=O)c1ccc(CN(CCc2ccccc2)Cc2ccccc2)cc1`, the “% Inhibition @ 10 uM” value was -3.57%.
To `O=C(Cn1sc2ccccc2c1=O)NC1CCCc2ccccc21` (stereo not drawn) belongs -6.47%.
To `CC(C)Cn1cc(C(=O)NCc2ccc(F)cc2Cl)c2c3ccccc3n(C)c2c1=O` belongs -5.77%; to `Cc1ccc(Cl)cc1NC(=O)COc1ccc(Br)cc1`, 4.22%; to `COc1cccc2cc(-c3nc(O)c4c(C)c(C(=O)Nc5ccccn5)sc4n3)c(=O)oc12`, -2.88%.
With `Cc1c(CNCCC(C)C)c(C(=O)O)c(C)n1Cc1ccccc1F`, the “% Inhibition @ 10 uM” value turned out to be 1.41%.
To `CC1CCC(NCCN2CCCCC2)C1` (stereo not drawn) belongs -1.64%; to `CCc1nn(C(C)C(=O)NCc2ccc(OC(C)C)cc2)c(=O)c2cc3occc3n12` (stereo not drawn), -5.15%; to `c1ccc(CN2CCN(c3ccccn3)CC2)cc1`, -0.294%.
As for `Cc1ccc(-c2nc(CSCC(=O)N3CCN(C(=O)c4ccco4)CC3)c(C)o2)cc1`, the “% Inhibition @ 10 uM” value was -2.85%.
To `COc1ccc(OC)c(CN2CCCN(C)CC2)c1` belongs -1.77%; to `Cn1c(=O)n(C)c2cc(/C=C3/SC(=O)N(CC(=O)Nc4ccc(F)cc4)C3=O)ccc21`, -1.79%.
Regarding `CC[C@H](NC(=O)C(Cc1c(F)cccc1F)NC(=O)c1ccc(-c2ccccc2Cl)cc1)C(=O)c1nc2ncccc2o1` (stereo partly drawn), the “% Inhibition @ 10 uM” value is -5.2%.
As for `CC(C)(C)OC(=O)N1CCN(S(=O)(=O)c2ccc(C(=O)NC3(C(=O)NCC#N)CCCCC3)cc2)CC1`, the figure is -1.41%.
For `COc1cc2c(cc1OC)CN(C(=O)C(c1ccccc1)c1ccccc1)CC2`, the “% Inhibition @ 10 uM” value is on record as 0.222%.
To `O=C(CSc1nnc(-c2ccccc2)o1)N1CCOCC1` belongs -0.999%.
To `COc1cc2oc(C(=O)N3CCN(Cc4ccccc4)CC3)c(C)c2cc1Br` belongs -1.76%.
To `CCC(NS(=O)(=O)c1ccc(C)cc1)C(=O)N1CCCCC1` (stereo not drawn) belongs -5.28%.
Turning to `COc1ccc(C2C(C#N)=C(N)Oc3ncnc(O)c32)cc1Br` (stereo not drawn), the “% Inhibition @ 10 uM” value is -2.77%.
As for `Cc1nc2ccccc2n1CCc1nc2c3ccccc3nc(NCC3CCCO3)n2n1` (stereo not drawn), the figure is -4.21%; as for `CCN(CC)c1ccc(C2C(C#N)=C(N)N(c3cccc(C)c3)C3=C2C(=O)CCC3)cc1` (stereo not drawn), 3.15%.
In the case of `CC(CCc1ccccc1)NC(=O)CCN1C(=O)c2ccccc2Sc2ncccc21` (stereo not drawn), the “% Inhibition @ 10 uM” value is -18.3%.
As for `CCN1C(=S)NC2c3cc(C(C)(C)C)cc(O)c3OC13CCCC23` (stereo not drawn), the figure is -0.499%; as for `O=C(Cn1cc(S(=O)(=O)Cc2cccc(Cl)c2)c2ccccc21)NC1CCCC1`, -3.22%; as for `O=C(NCCc1c[nH]c2ccccc12)c1ccc([N+](=O)[O-])cc1`, -3.58%.
As for `Cc1ccc(C)n1-c1nnc(N2CCCC(C(=O)NCc3ccco3)C2)s1` (stereo not drawn), the figure is -2.37%; as for `Cc1ccc(-c2nnn(Cc3nc(O)c4ccccc4n3)n2)cc1`, -5.72%.
As for `COc1ccc(-c2cc(-c3cccnc3)nc3ccc4ccccc4c23)cc1`, the figure is 3.48%; as for `CCOc1ccc(/C=C(\C#N)c2nc(-c3ccc(Br)cc3)cs2)cc1`, 0.912%.
In the case of `COc1cc(C(C)=O)ccc1OCC(O)Cn1cncn1` (stereo not drawn), the “% Inhibition @ 10 uM” value is recorded as 4.57%.
With `Cn1c(=O)c(C(=O)NC2CC2)c(O)c2ccccc21`, the “% Inhibition @ 10 uM” value was 0.345%.
To `Cc1ccccc1Cc1c(C)nc2c(C(=O)NCc3ccccn3)cnn2c1C` belongs 1.27%; to `Nc1c(C(=O)NCCC2=CCCCC2)nnn1-c1cccc(C(F)(F)F)c1`, 7.7%; to `Cc1cc(C)c(NC(=O)c2cc(F)c(F)cc2Cl)c(C)n1`, 2.99%.
Take `CN(C)Cc1cc(-c2ccccc2)c2ccccc2c1`: the “% Inhibition @ 10 uM” value turned out to be 0.343%.
Regarding `COc1ccc(CN2CCN(Cc3ccc(C)cc3)CC2)c(OC)c1OC`, the “% Inhibition @ 10 uM” value was determined as 17.9%.
As for `CCOc1ccc(/C=C2/SC(=O)N(Cc3cccc(C(=O)O)c3)C2=O)cc1`, the figure is 6.68%; as for `O=C(COc1ccccc1Br)c1ccc(O)cc1O`, -3.06%.
To `O=C(NC1CCCCCCC1)c1cccs1` belongs 0.823%; to `Cc1nn(-c2ccc(Cl)cc2Cl)c(=O)c2ccccc12`, -2.48%; to `O=C(NCc1ccc(F)cc1)C1CCN(c2ccc(N3CCOCC3)nn2)CC1`, 3.75%.
As for `CCOc1ccc(-c2nn(-c3ccccc3)cc2/C=c2\sc3nc(=O)c(C)nn3c2=O)cc1`, the figure is 1.32%; as for `Cc1ccccc1Cn1cc(SCC(=O)Nc2nccs2)c2ccccc21`, -4.82%.
With `CC(C)OCCCNC(=O)c1cc2c(=O)n3ccccc3nc2n1C`, the “% Inhibition @ 10 uM” value was 4.03%.
In the case of `O=C(CCn1c(=O)c2sccc2n(Cc2ccc(F)cc2Cl)c1=O)NCc1ccccc1`, the “% Inhibition @ 10 uM” value was 1.23%.
